Laboratory results taken from ChEMBL document CHEMBL4888484, “Replenishing the malaria drug discovery pipeline: Screening and hit evaluation of the MMV Hit Generation Library 1 (HGL1) against asexual blood stage Plasmodium falciparum ,using a nano luciferase reporter read-out” (2022).
The whole screen tested about 150,000 compounds, of which about 540 (0.36%) showed an effect of 50% or more. The list shows a part of the results.

test system: Plasmodium falciparum; assay: Primary screen in NF54 nanoGlo assay, in single point, at 2uM, 72h; a lower Z score goes with more inhibition; format: functional, Erythrocyte; conditions: timepoint 72 hour

| Structure (SMILES) | % Inhibition | Z score |
| --- | --- | --- |
| C[C@@H](CNC(=O)c1nn(-c2ccc(F)cc2)cc1O)Cn1ccnc1 | -2% | 0.21 |
| COc1ccc(CCN(Cc2ccco2)C(=O)CN(C(=O)C(C)C)C(C)(C)C)cc1OC | -10% | 0.94 |
| CCCN(C(=O)c1cccc[n+]1[O-])[C@@H](C)c1cc2ccccc2o1 | -6% | 0.73 |
| COCCNC(=O)N[C@@H](C)Cc1cc2ccccc2o1 | -1% | 0.21 |
| COc1ccc2c(N[C@H]3CCO[C@@H]3c3ccc(=O)[nH]c3)ncnc2c1F | -4% | 0.81 |
| CCOc1cc(CN[C@@H](CC)c2nc(C)no2)c(Cl)cc1OC(C)C | -11% | 1.48 |
| O=C(c1scc2c1OCCO2)N1CCCO[C@@H](Cn2cccn2)C1 | -4% | 0.52 |
| O=C(CN1CCCN(c2ccc(C(F)(F)F)cn2)CC1)Nc1cccc(F)c1 | -5% | 0.92 |
| CCCn1nnc2cc(S(=O)(=O)N3CCCC[C@H]3C(=O)NCc3ccccc3OCC)ccc21 | -39% | 3.48 |
| Cc1cccc(C(=O)N2CCCCCCNC(=O)CC2)c1 | -19% | 2.53 |
| CCCc1noc([C@H]2CC(=O)N(c3ccccc3)C2)n1 | 18% | -2.39 |
| CC1(C)[C@@H](c2ccccc2)[C@@H]1c1nc(-c2ccc(N)nc2)no1 | -1% | 0.14 |
| Nc1n[nH]c2ccc(-c3ccc(C(=O)NCC[C@H]4CCOC4)cc3)cc12 | -16% | 1.69 |
| C[C@@](O)(C(=O)NCc1ccc(OC(F)F)cc1)C1CC1 | 4% | -0.81 |
| Cc1noc(C)c1CNC(=O)[C@H](N)CC(C)C | -2% | 0.2 |
| Cc1ccc(NC(=O)c2ccc(C(=O)c3ccccc3)o2)cc1 | 14% | -1.72 |
| CO[C@H]1CCN(S(=O)(=O)N2CCCCCC2)C1 | -2% | 0.31 |
| CCC[C@H](C)C1(CC)C(O)=NC(=Nc2ccc(Cl)cc2)N=C1O (stereo partly specified) | 2% | -0.23 |
| C#CCN(C(=O)NC1CCN(c2ccccc2S(=O)(=O)CC)CC1)C1CCCCC1 | -9% | 1.3 |
| CN(C)CC(C)(C)CNS(=O)(=O)c1ccc(F)cc1C#N | -2% | 0.26 |
| CC[C@]1(O)CCN(c2nc(OC)cc(OC)n2)C[C@@H]1O | -4% | 0.48 |
| C[C@H]1CCCCN(C(=O)c2c[nH]c(C(F)(F)F)c2)C1 | 14% | -1.67 |
| Cn1cc(-c2ccc3c(c2)OCC[C@@H]2CC[C@H](O)[C@@H](CNC(=O)[C@@H]4C[C@@H](CN4C4CCC(F)(F)CC4)NC3=O)O2)cn1 | 9% | -1.42 |
